Data taken from the supplement of paper PMC3724861.
The other results are listed elsewhere or left out.

Each sequence was assayed on T1, Caupolican (Caup) homeodomain DNA-binding domain (assay: PBM E-score (8-mer, recovered from the published 9-mer minima) (E-score (dimensionless, -0.5 to 0.5)); Drosophila protein; higher = stronger relative binding preference, active = 0.31 or more).
T1 sequence: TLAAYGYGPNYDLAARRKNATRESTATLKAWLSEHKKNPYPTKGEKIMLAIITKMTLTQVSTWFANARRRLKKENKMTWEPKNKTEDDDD
In short: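 An enrichment score, with higher meaning stronger, expresses relative binding preference for each short DNA word. The protein used was Caup's homeodomain DNA-binding domain (residues 214-303), produced by in vitro transcription and translation and tested at 100 nM on custom-designed protein binding microarrays. The 8-mer values were recovered from published 9-mer scores, each equal to the lower of its two constituent 8-mer scores.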

PBM E-score, ≥ 0.225:
AACAAAGT

PBM E-score, ≥ 0.0905:
ACAGCGAA

PBM E-score, active:
CATGTTCC 0.409
GGTTGTTA 0.324

PBM E-score, inactive:
ACATTGCA 0.189
CATGAAGC 0.0221
AACGCCCG -0.108
CGGTTAGA -0.00782
CCCCGAGG -0.218
AAACTTGT 0.265
CGATCTCA 0.0293
GGGCCGAA -0.26
CTAGAACC -0.0482
ATCCGCAT 0.0355
TGAGAGCA -0.0548
ATCATTAA 0.101
CCAGTTGC -0.145
TGCCCCCA -0.258
AACGAACC 0.0454
AACCAATA 0.0905
AAGTGTTG 0.206
CCCCTCCG -0.158
CCCCGGTC -0.256
ACGAAGAC -0.0171
CGCTCTGA -0.1
AATCAATA 0.16
CATTGGGA 0.00347
GATCCATC 0.00651
CATCAGCA 0.0725
CGTGGCTA -0.14
ACCGTTCG -0.0339
CGCCGAGA -0.224
CGATACAC 0.16
CTTCGTCA 0.0577
CCCGCCAC -0.129
AAAGGGCG -0.0884
ACACTGAC 0.114
ATTTGAAC 0.0964
ATAAATCC 0.0377
CCCGATTC -0.0132
GATCTAAC 0.0364
AATTTTCT 0.0254
AACAGTCT 0.0513
ACACGGGC 0.0908
AGTACTCC -0.0186
CGTCAGCA -0.0975
AATATATG 0.253
AAATCTAC 0.143
ACGGGTGC -0.104
GCTGCCTA -0.157
CGGTAGTA 0.166
GCTTGTGA -0.02
CCAGTCTA -0.115
CGCCTTTA -0.145
CAATTATA 0.154
CGGCACGA -0.057
ACACCTAG 0.0969
GCGTGCTA -0.0711
CTGCTCTA -0.0278
ATAGATGG -0.0161
ACCTGTCA 0.136
CACCTATG -0.0452
ATGTTCGC 0.256
AAAGCGGT -0.102
AGGTCCAC -0.158
CAAGAGGC -0.118
CCTTCGAC -0.0335
GATCTCTA -0.0307
CACGCTGC -0.0283
ACTTAACG 0.0465
CCTGATAC 0.14
ACAAGCGA 0.243
GAGCGGCC -0.254
CCACTGCG -0.194
ATCTCGTC 0.004
AGCCCAAG -0.198
AAAATAGT 0.0994
AAATCTGT 0.125
CAGTGTTC 0.135
GACTGGAA -0.102
AGTAAGAT 0.145
CTCCTGGC -0.163
AACTCTCA -0.00437
AAATAGTG 0.159
CTTACGGA -0.0241
CGGAGAAG -0.205
CCCACAAA -0.0279
GGGTTGGA -0.185
CATCAAAC 0.143
CAGTGGGA -0.0845
AGTCTTCG -0.0737
GGGAACGA -0.125
AATCGGAT 0.114
CCAGTCGA -0.0529
CAAAGGTC -0.189
AGTACCCG 0.0946
ACGGTTGA 0.0784
ACAGACCT 0.0819
GATCTACA 0.145
ATCGAGCG -0.0641
TCTACCAA 0.0764
AGGGCAGA -0.12
ACCCTGGA -0.159
AATGCAAT 0.0302
CGAACCAG 0.02
CCCTGTCA 0.129
GCGAGTAA -0.0555
TCCCCAGA -0.171
ATAGACCA 0.00047
ATCACCGA 0.117
